The whole screen tested about 410,000 compounds, of which about 6,400 (1.6%) were called active. The shares of active, inactive and inconclusive entries below differ from those in the screen. Calls come from the whole dose curve; as a rule, active = well fitted inhibition curve with a large enough effect; inconclusive = small, poorly fitted or top-dose-only effect; inactive = no such curve, though single readings can be large or run the other way. No potency is given beside an inconclusive call; the fits are too rough.
Each molecule was assayed against Glucagon-like peptide 1 receptor (Homo sapiens) (UniProt P43220) (assay: qHTS of GLP-1 Receptor Inverse Agonists (Inhibition Mode)). Conditions: HEK293 GLP-1R CRE-luciferase, luminescence, 24 h, GLP-1R form is constitutively active; activity change, negative = inhibition: at 38.3 µM (top of the series) unless noted.
Chain of UniProt P43220 (P43220 whole entry, looked up): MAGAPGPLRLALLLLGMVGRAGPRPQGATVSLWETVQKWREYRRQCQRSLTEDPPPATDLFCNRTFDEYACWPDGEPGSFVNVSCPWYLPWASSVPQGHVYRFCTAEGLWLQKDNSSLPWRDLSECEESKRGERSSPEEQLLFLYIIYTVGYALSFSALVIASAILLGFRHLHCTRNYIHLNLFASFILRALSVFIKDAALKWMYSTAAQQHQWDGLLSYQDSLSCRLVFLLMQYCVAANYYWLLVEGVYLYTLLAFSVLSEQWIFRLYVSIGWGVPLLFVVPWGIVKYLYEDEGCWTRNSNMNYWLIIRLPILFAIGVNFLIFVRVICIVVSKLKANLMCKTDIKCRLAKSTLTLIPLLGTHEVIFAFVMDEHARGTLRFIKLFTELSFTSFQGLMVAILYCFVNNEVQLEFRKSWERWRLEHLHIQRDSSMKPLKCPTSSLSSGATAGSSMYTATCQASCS
Procedure, shortened: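 HEK293 cells stably co-expressing constitutively active GLP-1R and a cAMP-responsive luciferase reporter were seeded in DMEM with 10% Nu serum, given compounds after 12 h, and incubated 24 h at 37 deg C. Luminescence was then read.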
% is set by controls: 0 for no effect and ±100 for the full control effect; potency is the fitted concentration of half-maximal effect; tags give direction and shape of the fitted curve.
Note: nearly all actives have a fitted effect of over 55% in size.

Compound	Potency	activity change, negative = inhibition
Cc1ccc2oc(=O)n(CCNC(=O)Nc3ccc(Cl)cc3)c2c1	inconclusive [inhibitor, single point]	
CCCN(C(=O)Nc1cn(CC(C)C)c(=O)c2ccccc12)c1ccc(F)cc1	inconclusive [inhibitor, partial curve, poor fit]	
CC(OC(=O)c1cc(Br)ccc1O)C(=O)Nc1ccc(S(=O)(=O)N2CCCC2)cc1 (stereo not given)	inconclusive [inhibitor, single point]	
CCc1ccc(-c2cc3c(=O)n(CC(=O)NCCCN4CCN(CC)CC4)nc(C)n3n2)cc1	inconclusive [inhibitor, partial curve, poor fit]	
O=C(NCCCCc1ccccc1)c1cccc(NC(=O)C2CCC2)c1		inactive: 13.5%
Cc1cnc(NC(=O)C2COc3ccccc3O2)s1 (stereo not given)	inconclusive [inhibitor, single point]	
CCCN1C(=O)C(Cc2nc3ccccc3c(=O)n2-c2ccc(OC)cc2)c2cc(C)ccc21 (stereo not given)		inactive: 0.457%
CCc1cccc(C)c1NC(=O)CSc1nc2c(c(=O)[nH]1)CCC2		inactive: 4.06%
Cc1ccc(-c2cc(-c3ccccc3)no2)c(O)c1	inconclusive [inhibitor, partial curve, poor fit]	
c1ccc(CN2CCN(C3CCCSc4ccccc43)CC2)cc1 (stereo not given)	inconclusive [inhibitor, partial curve, poor fit]	
Cc1cc(C)cc(OCC(=O)N2CCC(c3nc4ccccc4s3)CC2)c1	inconclusive [inhibitor, single point]	
Cc1noc(C)c1CSCC(=O)Nc1cc(S(=O)(=O)N2CCOCC2)ccc1OCC(F)(F)F		inactive: 4.47%
O=C(c1ccoc1)N1CCC2(CC1)Oc1ccc(Cl)cc1C(=O)C21CC(c2cccnc2)=NO1 (stereo not given)		inactive: 16.8%
Cc1cc(C)cc(-n2nnc3ccccc3c2=O)c1		inactive: -14.2%
COc1ccc2c(c1)[nH]c1c(=O)n(/N=C/c3ccc(OC)c(CN4CCCC4)c3)cnc12	inconclusive [inhibitor, partial curve, poor fit]	
O=c1nc(N2CCOCC2)ccn1-c1nc(-c2ccccc2)oc1-c1ccccc1		inactive: 44.5%
O=C(Nc1ccc(N2CCOCC2)cc1)c1ccc2c(c1)OCO2	inconclusive [inhibitor, single point]	
CCN(CC)c1ncnc2ccc(Br)cc12	inconclusive [inhibitor, partial curve, poor fit]	
Cc1cccc2nc(-c3ccccc3)nc(N[C@@H](CO)c3ccccc3)c12	inconclusive [inhibitor, single point]	
Cc1ccc(OCCCCNC2CCCCC2)c(C)c1	inconclusive [inhibitor, partial curve, poor fit]	
Cc1cc(C)c(OCCN2CC(C)OC(C)C2)c(Br)c1 (stereo not given)	inconclusive [inhibitor, partial curve]	
Cn1c(=O)c2c(nc(CN3CCN(Cc4ccccc4)CC3)n2Cc2cccc(Cl)c2)n(C)c1=O	inconclusive [inhibitor, single point]	

Compound	Potency	activity change, negative = inhibition
O=C(NCCc1ccc(Cl)cc1)c1ccc(CSCc2cccc(Cl)c2)o1	inconclusive [inhibitor, single point]	
Cc1ccc([N+](=O)[O-])c(OCc2ncc(Cl)n2C)c1	inconclusive [inhibitor, partial curve, poor fit]	
COc1ccccc1NC(=O)C1(c2ccccc2)CCCC1	active: 3.98 µM	
Cc1ccc(Nc2cc(C)nc(-c3ccccc3)n2)cc1	inconclusive [inhibitor, single point]	
COc1cc(C(=O)CCN2CCC(c3ccccc3)C2)cc(OC)c1OC (stereo not given)	inconclusive [inhibitor, single point]	
Cc1cc2cc(CN(CC3CCCO3)C(=S)NCc3ccco3)c(=O)[nH]c2cc1C (stereo not given)	inconclusive [inhibitor, single point]	
Cc1ccc(C(C)C)c(OCC(=O)NNC(=O)CC2OC(=O)c3ccccc32)c1 (stereo not given)	inconclusive [inhibitor, single point]	
Cc1cccc(OCCCn2c(CCNC(=O)C3CCCCC3)nc3ccccc32)c1	inconclusive [inhibitor, partial curve, poor fit]	
COc1cccc(/C=N/Nc2ccc([N+](=O)[O-])cn2)c1O	inconclusive [inhibitor, full curve, poor fit]	
COc1cccc(-c2nc(SCC(=O)Nc3ccc4c(c3)OCCO4)c(-c3ccc(C)cc3)[nH]2)c1	inconclusive [inhibitor, partial curve, poor fit]	
COc1ccccc1CN(C)C(=O)CN1CCN(CC(=O)Nc2ccccc2Cl)CC1	inconclusive [inhibitor, full curve, poor fit]	
CCC(SC1=N/C(=C/c2ccccc2)C(=O)N1c1ccccc1)C(=O)Nc1cc(C)on1 (stereo not given)	inconclusive [inhibitor, partial curve, poor fit]	
COc1ccc(C(=O)NN2C(=O)C3C(c4ccccc4)C=CC(c4ccccc4)C3C2=O)cc1 (stereo not given)	inconclusive [inhibitor, single point]	
O=C(Nc1ccccc1)c1cc(C2CCCCN2C(=O)c2ccc3c(c2)CCO3)on1 (stereo not given)	inconclusive [inhibitor, partial curve, poor fit]	
O=C(CCS(=O)(=O)c1ccccc1)Nc1nc(-c2cccs2)cs1	inconclusive [inhibitor, single point]	
Cc1ccc(C)c(N2CCN(C(=O)C(CC(C)C)NS(=O)(=O)c3ccc4nc(C)sc4c3)CC2)c1 (stereo not given)	inconclusive [inhibitor, single point]	
CCc1ccc(CC2S/C(=C(\C#N)C(C)=O)NC2=O)cc1 (stereo not given)	inconclusive [inhibitor, single point]	
Cc1ccc(-c2cc(C(=O)N/N=C/c3ccccc3O)n[nH]2)o1	inconclusive [inhibitor, partial curve]	
CS(=O)(=O)N(Cc1ccccc1)c1ccc(C(=O)Nc2ccc(Cl)cc2)cc1	inconclusive [inhibitor, single point]	
COc1ccc(N2CCC(CNC(=O)Nc3ccc(OC)cc3OC)C2)cc1 (stereo not given)	inconclusive [inhibitor, partial curve, poor fit]	
C/C=C/c1cc(CN2CCN(c3ccccc3)CC2)c(O)c(OC)c1	inconclusive [inhibitor, single point]	
O=C(N/N=C/c1cccc([N+](=O)[O-])c1)C1CC(=O)N(c2ccc(Cl)cc2)C1 (stereo not given)	inconclusive [inhibitor, partial curve]	

Compound	Potency	activity change, negative = inhibition
COc1ccccc1N1CCN(C(=S)NC(=O)/C=C/c2ccccc2)CC1	inconclusive [inhibitor, partial curve, poor fit]	
CCOP(=O)(OCC)C(NC(=O)Nc1cccc(Cl)c1)C(N)=O (stereo not given)		inactive: -3.41%
CCOc1cccc2sc(N3CCN(C(=O)c4ccc5c(c4)CCCC5)CC3)nc12		inactive: 2.01%
CCOc1ccc(NC(=O)NCCCCc2ccccc2)cc1		inactive: -29.5%
Cc1cc(C)nc(Sc2nc(Nc3ccccc3)nc(Sc3nc(C)cc(C)n3)n2)n1		inactive: 11.1%
CCOc1cc(/C=N/NC(=O)C(=O)N/N=C/c2ccc(O)c(OCC)c2)ccc1O		inactive: 15%
Cc1cc(/C=N/NC(=O)c2ccc(O)cc2)c(C)n1CC(C)C		inactive: -7.93%
Cc1cccc(NCc2ccccc2O)c1C	inconclusive [inhibitor, single point]	
CCCc1ccc(C(=O)[C@@H]2[C@@H](C(C)=O)N3c4ccc(F)cc4C=C[C@@H]3[C@@]23C(=O)Nc2ccccc23)cc1	inconclusive [inhibitor, single point]	
COc1cccc(NC(=O)CN(C)C(=O)c2csc3c2CCCC3)c1	inconclusive [inhibitor, partial curve]	
CCOC(=O)c1[nH]c(C)c(C(=O)OCCN2C(=O)c3ccccc3C2=O)c1C	inconclusive [inhibitor, single point]	
CCc1nnc(NC(=O)CSc2nccn2Cc2ccc(C)cc2)s1		inactive: 14.6%
COc1ccc(NC(=O)Nc2ccc(OC)c(OC)c2)c([N+](=O)[O-])c1		inactive: -1.66%
CC1(C)CC(N2CCCC2)=CC(=[N+]2CCCCCC2)C1	inconclusive [inhibitor, partial curve, poor fit]	
COc1cc(/C=C2\C(=O)ON=C2c2ccccc2)cc(Cl)c1O		inactive: 8.57%
CC1CC(C)CN(C(=O)COC(=O)c2ccc(S(=O)(=O)N(C)c3ccccc3)cc2)C1 (stereo not given)	inconclusive [inhibitor, single point]	
O=C(NCc1ccccc1F)c1ccc(S(=O)(=O)Nc2cccc(C(F)(F)F)c2)cc1	inconclusive [inhibitor, partial curve, poor fit]	
O=C(N/N=C/c1ccc[nH]1)c1ccc(Cl)cc1		inactive: -7.79%
Cc1ccc(C(=O)n2nc(C)c(S(=O)(=O)N3CCCCCC3)c2C)cc1C		inactive: 16%
CC(C)NS(=O)(=O)c1ccc(OCC(=O)Nc2cccc(F)c2)cc1	inconclusive [inhibitor, single point]	
CCN1C(=O)[C@@H]2[C@@H](c3ccc(-c4ccc(OC)cc4)c(OC)c3)N3CCC[C@@]3(C(=O)OC)[C@@H]2C1=O		inactive: 2.32%
